The values below come from PubChem BioAssay (NCI).

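Compound exposure: 48 hours, 5 concentrations, 96-well plates. Here, GI50 denotes the concentration required for 50% inhibition of growth.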 For part of its entries the source gives two or more results. Only these are listed. There may be further records. For some assays here: Records of one sample usually come from different ranges of test concentrations, which the source does not state; some values may only mark the edge of a range.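 The concentration for full growth arrest is given as TGI.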 For some assays here: Results that share an entry are repeats in other runs, samples, wells, individuals or studies. What stands in brackets tells the records apart. The letters are not those of the source and start again with each entry.

Test systems include 786-0 renal; HOP-92 NSCLC; HS 578T breast; UO-31 renal; RPMI-8226 leukemia; A498 renal; A549 NSCLC; ACHN renal; BT-549 breast; CAKI-1 renal; CCRF-CEM leukemia; COLO 205 colon; DU-145 prostate; EKVX NSCLC; HCC-2998 colon; HCT-116 colon; HCT-15 colon; HL-60(TB) leukemia; HOP-62 NSCLC; IGROV1 ovarian; K-562 leukemia; KM12 colon; LOX IMVI melanoma; M14 melanoma; MALME-3M melanoma; MCF7 breast; MDA-MB-231 breast; MDA-MB-435; MOLT-4 leukemia; NCI-H226 lung; NCI-H23 lung; NCI-H460 lung; NCI-H522 lung; NCI/ADR-RES ovarian; OVCAR-3 ovarian; OVCAR-4 ovarian; OVCAR-5 ovarian; OVCAR-8 ovarian; PC-3 prostate; RXF 393 renal; SF-268 CNS; SF-295 CNS; SF-539 CNS; SK-MEL-2 melanoma; SK-MEL-28 melanoma; SK-MEL-5 melanoma; SK-OV-3 ovarian; SN12C renal; SNB-19 CNS; SR leukemia; SW-620 colon; T-47D breast; TK-10 renal; U251 CNS; UACC-62 melanoma; SNB-75 CNS.

Test in all cases: growth of human tumour cells (NCI), 48 h

On to `CC(C)c1[nH]nc2c(NCc3ccc(-c4ccccn4)cc3)nc(SCCN)nc12`, for which the TGI is 1.03 µM and 11.2 µM with 786-0 renal; 95 nM and 10.1 µM with HOP-92 NSCLC; 2.62 µM and 52.2 nM in the experiment with HS 578T breast; 503 nM and 8.69 µM in the experiment on UO-31 renal.

`Oc1ccc(Cl)cc1Sc1cc(Cl)ccc1O`: the TGI with RPMI-8226 leukemia was 7.87 µM [sample A] and > 100 µM [sample B].

With `CC[C@]1(O)C[C@H]2CN(CCc3c([nH]c4ccccc34)[C@@](C(=O)OC)(c3cc4c(cc3OC)N(C)[C@H]3[C@@](O)(C(=O)OC)[C@H](OC(C)=O)[C@]5(CC)C=CCN6CC[C@]43[C@@H]65)C2)C1`, the TGI in the experiment with 786-0 renal is 15.5 nM, 2.14 µM, 2.5 µM, 12.9 µM; in the experiment on A498 renal it was 2.02 nM and 127 nM; in the experiment on A549 NSCLC, 15 nM, 2.15 µM, 2.5 µM, 16.8 µM; with ACHN renal, 15.6 nM, 2.23 µM, 23.3 µM; with BT-549 breast it was 25 nM, 2.5 µM, 22 µM; in the experiment with CAKI-1 renal, 25 nM, 1.14 µM, 2.5 µM. Further, the TGI in the experiment with CCRF-CEM leukemia is 3.77 nM, 934 nM, 110 nM, 5.25 µM; in the experiment with COLO 205 colon, 0.0418 nM, 4.86 nM, 26.2 nM; with DU-145 prostate, 0.328 nM, 81 nM, 10.7 nM; in the experiment on EKVX NSCLC it was 2.98 nM, 1.68 µM, 2.5 µM, 46.8 µM; with HCC-2998 colon, 1.16 nM and 40.9 nM; with HCT-116 colon, 1.71 nM, 221 nM, 223 nM, 11.1 µM. Further, the TGI in the experiment on HCT-15 colon was 17.6 nM, 1.13 µM, 147 nM, 11.2 µM; in the experiment with HL-60(TB) leukemia it was 0.0198 nM and 9.69 nM; in the experiment on HOP-62 NSCLC it was 25 nM, 1.02 µM, 2.5 µM, 13.8 µM; with HOP-92 NSCLC, 10.2 nM, 386 nM, 2.5 µM, 11.2 µM; in the experiment on IGROV1 ovarian, 15.7 nM, 1.93 µM, 2.5 µM, 12.1 µM; in the experiment with K-562 leukemia, 1.2 nM, 1.18 µM, 118 nM, 10.2 µM. In addition, the TGI in the experiment on KM12 colon is listed as 0.284 nM, 145 nM, 23.3 nM; in the experiment with LOX IMVI melanoma, 0.499 nM, 1.72 µM, 2.5 µM, 10.3 µM; in the experiment on M14 melanoma, 16.5 nM, 296 nM, 2.5 µM, 61.5 nM; in the experiment on MALME-3M melanoma it was 25 nM, 1.58 µM, 2.5 µM, 13.3 µM; in the experiment with MCF7 breast, 0.901 nM, 1.64 µM, 2.03 µM, 52.9 µM; with MDA-MB-231 breast, 2.29 nM, 108 nM, 62.8 nM. Moreover, the TGI in the experiment with MDA-MB-435 was 0.00279 nM and 0.44 nM; in the experiment with MOLT-4 leukemia it was 4.49 nM, 1.39 µM, 110 nM, 29.8 µM; with NCI-H226 lung it was 0.738 nM, 23.6 nM, 2.5 µM; in the experiment with NCI-H23 lung, 1.88 nM, 85.7 nM, 2.5 µM; with NCI-H460 lung it was 4.81 nM, 318 nM, 725 nM; in the experiment with NCI-H522 lung it was 0.00779 nM and 0.922 nM. The TGI was 13.5, 977, 860, 443 nM in the experiment with NCI/ADR-RES ovarian; 0.037 nM, 3.55 nM, 110 nM in the experiment with OVCAR-3 ovarian; 25 nM, 2.24 µM, 2.5 µM, 20.7 µM with OVCAR-4 ovarian; 26.7 µM [mean of 2 tests] and 25 nM [mean of 3 tests] and 2.28 µM [mean of 83 tests] with OVCAR-5 ovarian; 2.31 nM, 446 nM, 2.5 µM, 15.2 nM in the experiment on OVCAR-8 ovarian; 0.822 nM, 128 nM, 2.5 µM in the experiment on PC-3 prostate. The TGI in the experiment with RPMI-8226 leukemia was 5.24 nM, 1.49 µM, 110 nM, 10.8 µM; with RXF 393 renal, 22.4 µM [1 test] and 89.5 nM [mean of 33 tests]; in the experiment on SF-268 CNS it was 14.5 nM, 1.59 µM, 1.88 µM, 6.64 µM; in the experiment on SF-295 CNS it was 0.0466 nM, 11.5 nM, 5.4 nM, 13 µM; in the experiment with SF-539 CNS it was 0.0257 nM and 2.16 nM; in the experiment on SK-MEL-2 melanoma, 25 nM, 79.9 nM, 2.5 µM. In addition, the TGI was 7.65 nM and 2.17 µM in the experiment on SK-MEL-28 melanoma; 0.0452, 40.4, 110, 20.3 nM in the experiment with SK-MEL-5 melanoma; 0.122 nM and 537 nM in the experiment with SK-OV-3 ovarian; 25 nM, 2.13 µM, 2.5 µM, 14.8 µM in the experiment on SN12C renal; 25 nM, 1.03 µM, 12.6 µM with SNB-19 CNS; 6.72 nM, 293 nM, 12.1 µM in the experiment on SR leukemia. Moreover, the TGI with SW-620 colon was 25 nM, 2.37 µM, 110 nM, 17.2 µM; with T-47D breast, 25 nM [1 test] and 43.8 µM [mean of 2 tests] and 2.5 µM [mean of 8 tests]; in the experiment with TK-10 renal, 19.9 nM [mean of 2 tests] and 2.49 µM [mean of 59 tests]; in the experiment with U251 CNS, 0.133 nM, 106 nM, 110 nM; with UACC-62 melanoma, 0.0873 nM, 1.36 µM, 2.5 µM; in the experiment on UO-31 renal, 25 nM, 2.18 µM, 2.5 µM, 18.7 µM. Also, the GI50 in the experiment with HS 578T breast was 4.88 nM [1 test] and 0.25 nM [mean of 10 tests]; in the experiment on T-47D breast it was < 0.0025 nM [1 test] and 19.1 µM [mean of 2 tests] and 2.24 µM [mean of 8 tests]; in the experiment with TK-10 renal it was 0.25 nM [mean of 2 tests] and 69.1 nM [mean of 59 tests].

For `COc1ccc(/C=C\c2cc(OC)c(OC)c(OC)c2)cc1OC(=O)CC(N)C(=O)O` (stereo not given), the TGI in the experiment on 786-0 renal was 1.77 nM and 21.6 nM; in the experiment on CCRF-CEM leukemia, 7.38 nM and > 100 µM; in the experiment on HCT-116 colon, 1.46 nM and 62.8 nM; with HCT-15 colon, 2.67 nM and 78.7 nM; with HL-60(TB) leukemia, 0.388 nM, 23.7 nM, > 100 µM; with KM12 colon, 3.86 nM and 128 nM. Besides, the TGI was 1.43 nM and > 100 µM in the experiment on LOX IMVI melanoma; 177 nM and > 100 µM in the experiment with M14 melanoma; 6.28 nM, 24.6 nM, 16.8 µM in the experiment with NCI-H460 lung; 6.6 nM, 67.7 nM, > 100 µM with OVCAR-8 ovarian; 42.3 nM and 8.58 µM in the experiment on RXF 393 renal; 144 nM and > 100 µM in the experiment with SK-OV-3 ovarian. The TGI in the experiment on SNB-19 CNS was 885 nM and > 100 µM; in the experiment with SNB-75 CNS, 5.05 nM, 769 nM, > 100 µM; with SR leukemia it was 0.855 nM and > 100 µM. The GI50 with SR leukemia was 0.179 nM and > 100 µM.

Take `COc1cc(C2c3cc4c(cc3[C@@H](Nc3ccc([N+](=O)[O-])cc3)C3COC(=O)[C@H]23)OCO4)cc(OC)c1O` (stereo not given in full): the TGI is 233 nM and 2.61 µM in the experiment on HL-60(TB) leukemia; 872 nM and 18.2 µM with HOP-92 NSCLC.
